{"source": "PubChem BioAssay AID504845", "about": "(National Center for Advancing Translational Sciences (NCATS), 2011)", "note": "The whole screen tested about 390,000 compounds, of which about 150 (0.038%) were called active. Inconclusive results, whose numbers are uncertain, are shown with a selection of clear calls. The call rests on the fitted dose curve; in most records, active means well fitted inhibition curve with a large enough effect; inconclusive means small, poorly fitted or top-dose-only effect; inactive means no such curve, though single readings can be large or run the other way. A potency beside an inconclusive call is a rough fit, not a confirmed value."}
{"target": "Regulator of G-protein signaling 4 (Homo sapiens) (UniProt P49798)", "sequence (P49798 whole entry, looked up)": "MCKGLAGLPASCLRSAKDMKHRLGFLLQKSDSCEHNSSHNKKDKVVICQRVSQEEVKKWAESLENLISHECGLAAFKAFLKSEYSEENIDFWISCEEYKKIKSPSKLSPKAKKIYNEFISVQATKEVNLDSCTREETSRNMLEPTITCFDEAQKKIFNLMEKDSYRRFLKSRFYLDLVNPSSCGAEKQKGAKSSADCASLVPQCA", "assay": "Inhibitors of Regulator of G Protein Signaling (RGS) 4: qHTS; further: nearly all actives have a fitted effect of over 75% in size; further: potency means the concentration at half of the fitted maximal effect; tags describe the fitted curve by direction and shape; on activity change, negative = inhibition: on the % scale 0 is the no-effect control and ±100 the full control effect", "details": "Transcreener GDP fluorescence polarization, RGS4-accelerated GTP hydrolysis; series mostly up to 114 µM; activity change, negative = inhibition: at the top concentration", "outline": "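MLSMR compounds (23 nl, pin-transferred) preincubated 10 min at room temperature with a 500nM (2x) first reagent, then RGS4 at 900nM (2x) plus Transcreener GDP mix added; fluorescence polarization (620/688 nm) read before and after 90 min at 30 °C.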"}
{"molecule": "COc1ccc(C2CC2/C(=N/O)c2ccccc2)cc1", "note": "(stereo not given)", "Potency": "inconclusive: 31.6 µM [inhibitor, full curve, poor fit]"}
{"molecule": "Cc1ccc(N/N=C(\\Cc2nc3ccccc3[nH]2)c2ccccc2)cc1", "Potency": "inconclusive: 70.8 µM [inhibitor, partial curve, poor fit]"}
{"molecule": "COc1ccccc1CNC(=O)Cn1ncn2c(cc3sccc32)c1=O", "activity change, negative = inhibition": "inactive: -39.2%"}
{"molecule": "COc1cc2c(=O)n(Cc3ccccc3)c(=O)n(CC(=O)NCc3ccco3)c2cc1OC", "activity change, negative = inhibition": "inactive: -11.4%"}
{"molecule": "COc1cc([N+](=O)[O-])cc(/C=N/NC(=O)Cn2nc(C)cc2C)c1O", "activity change, negative = inhibition": "inactive: 11.2%"}
{"molecule": "Cc1ccc(-c2nn3c(C)nnc3s2)cc1NC(=O)c1ccc(-c2cccc(Cl)c2)o1", "Potency": "inconclusive: 17.8 µM [inhibitor, full curve, poor fit]"}
{"molecule": "N#CC1=C2SCN(Cc3ccco3)CN2C(=O)CC1c1cccc2ccccc12", "note": "(stereo not given)", "Potency": "inconclusive: 56.2 µM [inhibitor, partial curve, poor fit]"}
{"molecule": "CC(=O)n1cc(N(C(=O)CCl)c2ccccc2)c2ccccc21", "activity change, negative = inhibition": "inactive: -33.3%"}
{"molecule": "CCCC[C@@H]1CCCO[C@@](C(=O)NCc2ccccc2)(C(F)(F)F)C1", "activity change, negative = inhibition": "inactive: -3.23%"}
{"molecule": "O=C(c1cccc2ccccc12)C1CCCN(C(=O)c2ccc(N3CCOCC3)cc2)C1", "note": "(stereo not given)", "Potency": "inconclusive: 70.8 µM [inhibitor, partial curve, poor fit]"}
{"molecule": "COc1ccc(C(=O)Nc2ccc(C(=O)OCc3cc(=O)n4nc(C5CC5)sc4n3)cc2)cc1", "Potency": "inconclusive: 10 µM [inhibitor, full curve, poor fit]"}
{"molecule": "Oc1ccccc1C(Nc1nccs1)c1ccc2cccnc2c1O", "note": "(stereo not given)", "activity change, negative = inhibition": "inactive: 2.75%"}
{"molecule": "O=C(c1ccco1)N1CCN(c2ccc([N+](=O)[O-])cc2F)CC1", "Potency": "inconclusive: 100 µM [inhibitor, partial curve, poor fit]"}
{"molecule": "CC(C)(C)c1csc(NC(=O)Nc2ccccc2)n1", "activity change, negative = inhibition": "inactive: 6.98%"}
{"molecule": "N#Cc1c(SCC(=O)Nc2cccc(C(F)(F)F)c2)sc2c(O)cc(=O)[nH]c12", "Potency": "inconclusive: 100 µM [inhibitor, partial curve, poor fit]"}
{"molecule": "O=C1NC(=O)/C(=C\\c2ccc(O)cc2O)S1", "Potency": "inconclusive: 79.4 µM [inhibitor, partial curve, poor fit]"}
{"molecule": "C=CCn1c(=O)/c(=C/c2ccc(C)o2)s/c1=C(/C#N)C(=O)c1ccccc1", "Potency": "inconclusive: 50.1 µM [inhibitor, partial curve, poor fit]"}
{"molecule": "CCc1ccc(/C(C)=N/NC(=O)CNC(=O)/C=C/c2ccco2)cc1", "Potency": "inconclusive: 17.8 µM [inhibitor, full curve, poor fit]"}
{"molecule": "Cc1ccc(NC(=O)C(=O)NCc2ccco2)cc1", "activity change, negative = inhibition": "inactive: 20.7%"}
{"molecule": "Cc1ccc(NC(=O)Cn2c(=O)n(CCCCC(=O)NCc3ccccc3Cl)c(=O)c3ccccc32)cc1", "activity change, negative = inhibition": "inactive: -0.351%"}
{"molecule": "COc1ccc(/C=N/NC(=O)c2nn(-c3ccccc3)c(=O)c3c(N)scc23)cc1", "Potency": "inconclusive: 50.1 µM [inhibitor, partial curve, poor fit]"}
{"molecule": "COc1cccc(N=Cc2c[nH][nH]c2=O)c1", "Potency": "inconclusive: 79.4 µM [inhibitor, partial curve, poor fit]"}
{"molecule": "COc1ccc(CNCCNC(=O)c2cccs2)c(OC)c1OC", "activity change, negative = inhibition": "inactive: -9.62%"}
{"molecule": "CC(C)NC(=O)Nc1cccc2c1O[C@H](CN(C)S(=O)(=O)c1ccc(F)cc1)[C@@H](C)CN([C@H](C)CO)C2=O", "Potency": "inconclusive: 31.6 µM [inhibitor, full curve, poor fit]"}
{"molecule": "Cc1cccc(CS(=O)(=O)c2ncc(Cl)c(C(=O)Nc3c(C)cccc3C)n2)c1", "Potency": "inconclusive: 28.2 µM [inhibitor, full curve, poor fit]"}
{"molecule": "CCN(CC)CCCN1C(=O)C(O)=C(C(=O)c2cc3ccccc3o2)C1c1ccccn1", "note": "(stereo not given)", "activity change, negative = inhibition": "inactive: 7.36% [at 11.4 µM]"}
{"molecule": "C=CCn1c(SCc2csc(C)n2)nc2scc(-c3ccc(C)o3)c2c1=O", "Potency": "inconclusive: 35.5 µM [inhibitor, full curve, poor fit]"}
{"molecule": "CCOc1ccccc1N1CCN(c2nc(N)c(C#N)c(CC#N)c2C#N)CC1", "Potency": "inconclusive: 100 µM [inhibitor, partial curve, poor fit]"}
{"molecule": "O=C1C=CC(=Nc2ccc(F)cc2)O1", "Potency": "inconclusive: 35.5 µM [inhibitor, partial curve, poor fit]"}
{"molecule": "c1coc(-c2nc3n(n2)C2(CCCCC2)[C@@H]2CCCC[C@@H]2N3)c1", "activity change, negative = inhibition": "inactive: 5.02%"}
{"molecule": "CC(C)(C)n1nnnc1C(c1cccs1)N1CCCc2ccccc21", "note": "(stereo not given)", "activity change, negative = inhibition": "inactive: 16.7%"}
{"molecule": "CCCN1C(=O)C2(c3ccccc31)c1c(oc3ccc(F)cc3c1=O)C(=O)N2CCCOC(C)C", "note": "(stereo not given)", "activity change, negative = inhibition": "inactive: 15.7%"}
{"molecule": "COc1cc(CN2CCCC(C(=O)c3ccc4c5c(cccc35)CC4)C2)cc(OC)c1O", "note": "(stereo not given)", "Potency": "inconclusive: 50.1 µM [inhibitor, partial curve, poor fit]"}
{"molecule": "CC(C)(C)c1ccc(C(=S)N2CCN(c3ccccc3)CC2)cc1", "Potency": "inconclusive: 89.1 µM [inhibitor, single point]"}
{"molecule": "CCC(CC)C(=O)Nc1nnc(SCc2cc(=O)n3cccc(C)c3n2)s1", "activity change, negative = inhibition": "inactive: 20.9%"}
{"molecule": "O=C(c1cccn(Cc2ccc(C(F)(F)F)cc2)c1=O)N1CCOCC1", "Potency": "inconclusive: 44.7 µM [inhibitor, partial curve, poor fit]"}
{"molecule": "COc1ccccc1C(=O)NCCC(=O)N(Cc1ccco1)Cc1cccs1", "activity change, negative = inhibition": "inactive: 4.63%"}
{"molecule": "O=C(Nc1cccc(F)c1)C1CCN(S(=O)(=O)c2cccc3nsnc23)CC1", "Potency": "inconclusive: 89.1 µM [inhibitor, partial curve, poor fit]"}
{"molecule": "CC1(NC(=O)Nc2cccc(Br)c2)CCS(=O)(=O)C1", "note": "(stereo not given)", "activity change, negative = inhibition": "inactive: -19.9%"}
{"molecule": "C#CCOCCOCCOCCNc1nc(N2CCN(C(=O)CCCCCCCCCCNC(=O)Cn3cc(CCCCCN)nn3)CC2)nc(N2CCN(C(=O)CCCCCCCCCCNC(=O)[C@@H](CCSC)n3cc(CCO)nn3)CC2)n1", "Potency": "inconclusive: 70.8 µM [inhibitor, partial curve, poor fit]"}
{"molecule": "CCN1CCN(CCNC(=O)c2ccc3c(c2)N(Cc2ccc(F)cc2)C(=O)/C(=C/c2ccccc2)S3)CC1", "activity change, negative = inhibition": "inactive: -19.1%"}
{"molecule": "CCC1C/C(=C\\c2cccnc2)C(=O)/C(=C/c2cccnc2)C1", "note": "(stereo not given)", "Potency": "inconclusive: 50.1 µM [inhibitor, partial curve, poor fit]"}
{"molecule": "COc1cc2c(cc1NC(=S)Nc1cccc3ccccc13)oc1ccccc12", "Potency": "inconclusive: 28.2 µM [inhibitor, full curve, poor fit]"}
{"molecule": "c1ccc2c(c1)OCC(c1nnc3sc(-c4ccc5c(c4)OCO5)nn13)O2", "note": "(stereo not given)", "Potency": "inconclusive: 56.2 µM [inhibitor, partial curve, poor fit]"}
{"molecule": "CC(C)c1ccc(N(CC(=O)O)S(=O)(=O)c2cccnc2)cc1", "Potency": "inconclusive: 79.4 µM [inhibitor, single point]"}
{"molecule": "O=C(Cc1cccc(C(F)(F)F)c1)Nc1ccccc1", "Potency": "inconclusive: 56.2 µM [inhibitor, partial curve, poor fit]"}
{"molecule": "CC/C=C\\C/C=C\\C/C=C\\C/C=C\\C/C=C\\CCCCCC(=O)O", "Potency": "active: 21.2 µM"}
{"molecule": "COc1ccc(OC)c(CNC(=O)C2CCN(c3nc4ccccc4nc3C(F)(F)F)CC2)c1", "activity change, negative = inhibition": "inactive: -29.4%"}
{"molecule": "COc1ccc(/C(C)=N/N=C2/NC(=O)CC(C(=O)O)S2)cc1", "note": "(stereo not given)", "Potency": "inconclusive: 79.4 µM [inhibitor, single point]"}
{"molecule": "O=c1oc2cc(Br)ccc2n1CSC1=NCCS1", "Potency": "inconclusive: 79.4 µM [inhibitor, partial curve, poor fit]"}
{"molecule": "CCNc1nc(NCC)n2c(SCC(=O)Nc3ccc(OC)c(OC)c3)nnc2n1", "activity change, negative = inhibition": "inactive: -7.93%"}
{"molecule": "O=C1[C@H]2[C@@H](c3ccc(F)cc3)N3C(=O)N(c4cccc(Cl)c4)C(=O)[C@@]3(Cc3ccc(Cl)cc3)[C@H]2C(=O)N1C1CCCCC1", "activity change, negative = inhibition": "inactive: -16.5%"}
{"molecule": "CCN1/C(=C/C=C/C=C/C=C/c2sc3ccccc3[n+]2CC)Sc2ccccc21", "Potency": "inconclusive: 31.6 µM [inhibitor, full curve, poor fit]"}
{"molecule": "COc1ccc(C=O)cc1OC1C=CCCC1", "note": "(stereo not given)", "Potency": "inconclusive: 79.4 µM [inhibitor, partial curve, poor fit]"}
{"molecule": "Cc1ccc(S(=O)(=O)c2cc3ccccc3oc2=O)cc1", "Potency": "inconclusive: 89.1 µM [inhibitor, single point]"}
{"molecule": "CCN(CC)C(=O)c1sc2nc(Cc3ccccc3)[nH]c(=O)c2c1C", "Potency": "inconclusive: 50.1 µM [inhibitor, partial curve, poor fit]"}
{"molecule": "Nc1c(C(=O)N2CCCCC2)sc2nc3c(cc12)CCCC3", "activity change, negative = inhibition": "inactive: -43.7%"}
{"molecule": "COc1cccc(CN(C)C(=O)C(Cc2ccccc2)NC(=O)c2ccccc2)c1OC", "note": "(stereo not given)", "activity change, negative = inhibition": "inactive: 6.91%"}
{"molecule": "CCCCS(=O)(=O)Nc1ccc(C)cn1", "Potency": "inconclusive: 100 µM [inhibitor, single point]"}
{"molecule": "CCC(C(=O)O/N=C(\\N)c1ccccc1)c1ccccc1", "note": "(stereo not given)", "Potency": "inconclusive: 79.4 µM [inhibitor, single point]"}
{"molecule": "Cc1cc(/C=C2/SC(=S)N(c3cccc(Cl)c3)C2=O)c(C)n1-c1cccnc1", "Potency": "inconclusive: 79.4 µM [inhibitor, partial curve, poor fit]"}
{"molecule": "COc1ccc(N(C(=O)c2ccccc2)S(=O)(=O)c2cccs2)cc1", "Potency": "inconclusive: 35.5 µM [inhibitor, full curve, poor fit]"}
{"molecule": "CCOC(=O)CN1NC2(CCCC(C)C2)NC1=S", "note": "(stereo not given)", "Potency": "inconclusive: 50.1 µM [inhibitor, partial curve, poor fit]"}
{"molecule": "CN1CCN(S(=O)(=O)c2cccc(C(=O)Nc3sccc3C#N)c2)CC1", "Potency": "inconclusive: 25.1 µM [inhibitor, full curve, poor fit]"}
{"molecule": "COc1ccc(OC)c(S(=O)(=O)Nc2ccc(-c3ccc4nncn4n3)cc2)c1", "Potency": "inconclusive: 89.1 µM [inhibitor, partial curve, poor fit]"}
